According to PubChem BioAssay AID743279 (National Center for Advancing Translational Sciences (NCATS), 2014):
The whole screen tested about 360,000 compounds, of which about 17,000 (4.7%) were called active. This list was built around the results that the source calls inconclusive (neither active nor inactive); the mix of calls is not that of the screen. Rule as the data show it: active = activity change below about -50%; inconclusive = mostly about -30% to -49%; inactive = weaker than that.

Assay: qHTS for Inhibitors of Inflammasome Signaling: IL-1-beta AlphaLISA Primary Screen
Details: THP-1 LPS/ATP IL-1B secretion, 16 h; at 57.5 µM, hits give low values
Outline: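 THP-1 cells pretreated 1 hr with compounds (up to 57.5 uM final), then stimulated with LPS (250 ng/mL final) plus ATP (1.25 mM final); secreted IL-1B measured by AlphaLISA after 16 hr, decreased signal indicating inhibition.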
% is scaled to controls: 0 for no effect and ±100 for the full control effect.

Activity change, inactive:
C[C@H](CO)N1C[C@H](C)[C@@H](CN(C)C(=O)c2ccc3ccn(C)c3c2)OCc2cn(nn2)CCCC1=O 24.9%
CC(C)(C)c1ccc(OCC(=O)NCCN2CCCC2)cc1 14.5%
CCC(=O)Nc1nnc(S(=O)(=O)N(C)c2cc(C)cc(C)c2)s1 3.47%
CC(=O)c1ccc(NC(=O)C(C)OC(=O)C2CCN(c3ccc(C(F)(F)F)cn3)CC2)cc1 (configuration not stated) 10.1%
COc1ccc(NC(=O)COC(=O)/C=C/c2cnc3ccccc3n2)cc1 12.9%
CC1(C)CC(=O)C2=C(C1)Nc1[nH]n(-c3ccccc3)c(=O)c1C2c1ccc2c(c1)OCO2 (configuration not stated) -7.15%
O=C(N/N=C/c1ccc(Br)s1)c1ccc([N+](=O)[O-])cc1 -3.82%
CCOC(=O)c1cnn(CCOC(=O)C(C)(C)C)c1NC(=O)C(C)(C)C 54.2%
CC(C)c1ccc(S(=O)(=O)N2CCN(C(=O)CCc3nc4ccccc4c(=O)[nH]3)CC2)cc1 19%
COC(=O)N/N=C/c1cn(CCCOc2ccccc2)c2ccccc12 -22.3%
CCN1CCN(c2ccc(NC(=O)c3ccccc3F)cc2Cl)CC1 -13%
CCCCN(C(=O)CCN1C(=O)C2CC=CCC2C1=O)c1c(N)n(CCCC)c(=O)[nH]c1=O (configuration not stated) 12.1%
COC(=O)C(=Cc1ccncc1)c1cccc2ccccc12 0%
CCOC(=O)C1CCN(C(=O)c2cccs2)CC1 29%
O=C(O)c1cc(C(F)(F)F)nc2c(C(F)(F)F)cccc12 24.7%
O=C(Cc1ccc(Cl)c(Cl)c1)Nc1cccc2ncccc12 19.4%
Cc1onc(-c2c(Cl)cccc2Cl)c1NC(=O)N1CCSCC1 7.73%
CC1(C)C2CC=C(/C=N/NC(=O)c3ccccc3Br)C1C2 (configuration not stated) 4.88%
CCn1c(CNC(=O)c2cccnc2)cc2ccccc21 16.1%
Cc1c(-n2c(=O)n(Cc3ccccc3)c(=O)c3[nH]cnc32)cccc1S(C)=O (configuration not stated) 7.53%

Activity change, inconclusive:
CCCC1CCC(=NNC(=S)NCCc2ccccc2)CC1 (configuration not stated) -31.1%
COC(=O)c1ccc(Cn2nnc3c(=O)[nH]c(C4CCCN(S(=O)(=O)c5ccccc5Cl)C4)nc32)cc1 (configuration not stated) -36.7%
O=C(NC(=S)Nc1ccc([N+](=O)[O-])cc1)c1ccco1 -33.9%
CCOc1ccc(Cl)cc1-c1cc(C(=O)NCc2ccccc2)[nH]n1 -31%
CCN(CC)c1ccc(S(=O)(=O)N2CCOCC2)cc1NC(=O)CSC(=S)N1CCCC1 -44%
CC1CC(C)CN(C(=O)CSc2nc(N)cc(=O)[nH]2)C1 (configuration not stated) -31.6%
CC(C)CCNc1nc(N2CCCC2)c2c(c1C#N)CCN(C)C2 -38.2%
Cc1ccccc1Cn1c2ccccc2c2cnn(CC(=O)NCCCN3CCN(C)CC3)c(=O)c21 -35%
Cc1ccc(S(=O)(=O)Nc2ccc(NC(=O)c3cccs3)cc2)cc1 -49.2%
C=CCn1c(SC(C)C(=O)NC2(C#N)CCCCC2)nnc1-c1ccc(OC)cc1 (configuration not stated) -31.9%
O=C(Cc1ccccc1)N/N=C/c1cc(Br)cc(Cl)c1O -40.3%
COc1cccc(NC(=O)Nc2cccn(Cc3ccccc3)c2=O)c1 -49%
CCOc1ccc(NC(=O)CN(C)Cc2ccc3c(c2)OCO3)cc1S(=O)(=O)N1CCCC1 -38.5%
COc1cc(C(=O)COC(=O)c2cc([N+](=O)[O-])ccc2N2CCOCC2)ccc1OC(F)F -38.9%
Nc1nc(N)c2cc(Sc3cccc(C(F)(F)F)c3)ccc2n1 -36.3%
COCCNC(=O)c1ccc(C)cc1C -45.1%
Cn1c(C(=O)NCc2ccccc2)cc2oc3ccccc3c21 -38.2%
O=C(NC1CCCCC1)c1ccc(N2CCOCC2)c([N+](=O)[O-])c1 -44.8%
Cc1nc2cc(NC(=O)Nc3ccccc3Cl)ccc2n1C -31.6%
N#C/C(C(N)=O)=C1/CCc2ccccc2N1 -30.2%
COc1cccc(CNC(=O)c2cc(COc3c(F)cccc3F)on2)c1 -30.2%
Cc1cccc(C)c1NC(=O)C[N+](C)(C)CC(O)COc1cccc2ccccc12 (configuration not stated) -48%
CCc1ccc(-c2nc(CN3CCC(C(=O)NCc4ccco4)CC3)c(C)o2)cc1 -39.5%
COc1ccc(N(C)S(=O)(=O)c2cccc(C(=O)NC3CCCCC3C)c2)cc1 (configuration not stated) -49.5%
COc1cc(COCC(O)CN2CCN(CCN3C(=O)c4cccc5cccc(c45)C3=O)CC2)cc(OC)c1OC (configuration not stated) -48.7%
COc1ccc(/C=C/c2onc(C)c2S(=O)(=O)N2CCC(C(=O)N3CCCCCC3)CC2)cc1 -48.2%
Cc1ccc2nc(NCC(N)=O)nc(-c3ccccc3)c2c1 -40.1%
Cc1ccc(C(=O)N2CCN(c3ccc(NC(=O)Cc4ccccc4)cc3)CC2)cc1 -35.5%
COc1ccc(-c2cnc3c(NC(C)=O)cc(-c4ccc(C(=O)N5CCOCC5)cc4)cn23)cc1OC -36.6%
CCOc1ccc(NC(=O)CN2CCN(c3ccc(F)cc3)CC2)cc1S(=O)(=O)N1CCCC1 -30.5%
NC(=O)CC(NC(=O)c1ccccc1)c1ccc(NCc2ccc(F)cc2)c([N+](=O)[O-])c1 (configuration not stated) -33.8%
CCSc1nc2cc(OC)c(OC)cc2c(=O)n1CC -33.7%
Cc1ccc(C(=O)c2cc3c(cc2[N+](=O)[O-])OCCO3)cc1 -33.4%
COc1ccccc1NC(=O)N1CCCC1 -33.1%
Cc1c(C(=O)OCC(=O)N(C)Cc2ccc(Cl)cc2)oc2ccccc12 -38.8%
CC(=O)c1coc2ccc(OCCN3CCCCC3)cc12 -39.2%
O=C(NCc1nnnn1-c1ccc(F)c(F)c1)c1ccc2ccccc2c1 -43.7%
CCOC(=O)C1(Cc2cccc(Cl)c2)CCCN(C(=O)c2cc(C(C)C)nn2C)C1 (configuration not stated) -31.8%
N#Cc1ccc(S(=O)(=O)N2CCCN(c3ccc(C(F)(F)F)cn3)CC2)cc1 -36%
CN(c1ccc(C(=O)N2CCN(c3ccccc3F)CC2)cc1)S(=O)(=O)c1ccccc1 -31.4%
COc1ccc(N2CC(C(=O)Nc3nnc(SCC(=O)N4CCOCC4)s3)CC2=O)cc1 (configuration not stated) -31.1%
COc1cccc2oc3cc(C#CC4(O)CCCCC4)ccc3c(=O)c12 -45.2%
O=C(Nc1ccc2nccnc2c1)Nc1ccccc1Cl -38.7%
O=C(Nc1nc2c(s1)CCc1ccccc1-2)c1cccs1 -33.4%
CNCc1ccccc1Sc1cccc(O)c1 -30.2%
CCOc1ccc(C(=O)NCC(=O)NCCSc2ccc(Br)cc2)cc1OCC -32.5%
CCN(CC)C(=S)SCC(=O)c1c(C)[nH]c2ccccc12 -37.8%
COc1ccc(NC(C)=O)cc1NC(=O)CN1CCN(CC(=O)Nc2ccccc2Cl)CC1 -32.4%
Cc1ccc(NC(=O)CSc2nnc(-c3ccccc3C)o2)cc1C -31.7%
O=C(NCc1ccc2c(c1)OCO2)C1CC(c2ccc(Cl)c(Cl)c2)=NO1 (configuration not stated) -39.6%
Cc1nnsc1-c1onc(C)c1C(=O)Nc1cc(Cl)cc(Cl)c1 -43.1%
O=C(/C=C/c1cccc(F)c1)Nc1cc(S(=O)(=O)N2CCOCC2)ccc1Cl -47.7%

Activity change, active:
COC(=O)[C@@]1(Cc2ccc(F)cc2)[C@H]2c3cc(C(=O)N4CCCC4)n(CCc4ccc(OC)c(Br)c4)c3C[C@H]2CN1C(=O)c1ccccc1 -67%
COc1cc(CCNC2=CC(=O)c3ncccc3C2=O)ccc1O -70.7%
CCCOc1cccc(C(=O)NC(=S)Nc2cccc(C(F)(F)F)c2)c1 -56.7%
Nc1ccc(-c2cnc(N)c(C(=O)c3cccnc3)n2)cn1 -91.2%
Cc1nnc(SC(C)C(=O)Nc2ccc(Cl)cn2)n1Cc1ccccc1 (configuration not stated) -59.7%
CCOC(=O)c1ccc(NC(=O)CN(C)S(=O)(=O)c2ccc(Br)s2)cc1 -71.7%
CN(C)c1ccc(C=c2c3ccccc3n3c2c2c([n+]3C)CCCC2)cc1 -111%
CC(=O)C1=C(C)NC(SCC(=O)c2ccc(F)cc2)=C(C#N)C1c1ccco1 (configuration not stated) -84.6%
O=C(Nc1cccc(S(=O)(=O)N2CCCCC2)c1)c1ccc([N+](=O)[O-])o1 -92.4%
CC1(C)CC(NC(=O)c2cccc(S(=O)(=O)N(Cc3ccccc3)c3ccccc3)c2)CC(C)(C)N1 -80.7%
FC(F)Sc1ccc(NC(=S)NCC2CCCCC2)cc1 -92%
O=C(CCl)N1CCN2C(=O)c3ccccc3C12c1ccc(Cl)cc1 (configuration not stated) -94.8%
COc1ccc(Nc2nc(N3CCCCC3)nc3ccccc23)c(OC)c1 -62.4%
Cc1cccc(-n2cc(CNCCN3CCOC3=O)c(-c3cccc(F)c3)n2)c1 -57.5%
CCCCCCNCc1ccc(Br)cc1 -56.1%
